# Assay results: the supplement of paper PMC4166925
# ± gives the standard deviation of the averaged measurements. The full ranking holds about 33,000 sequences; the median of “E-score (dimensionless, -0.5 to 0.5)” is about -0.049, and the highest 2% start at about 0.37. Some of the results follow.
# Test system: T1, PmTbr T-box DNA-binding domain (GST fusion)
# T1 sequence: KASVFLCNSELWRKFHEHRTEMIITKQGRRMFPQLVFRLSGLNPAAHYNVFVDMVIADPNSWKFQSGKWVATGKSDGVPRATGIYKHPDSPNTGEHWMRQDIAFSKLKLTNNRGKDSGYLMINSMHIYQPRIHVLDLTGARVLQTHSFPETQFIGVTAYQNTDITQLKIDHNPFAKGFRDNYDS
# Assay: PBM E-score of 8-mer (E-score (dimensionless, -0.5 to 0.5)); Tbr is Tbrain of the sea star Patiria miniata (Pm) or the sea urchin Strongylocentrotus purpuratus (Sp); higher = stronger binding preference; most listed sequences are background and not binding sites
# Settings: the construct has about 5 more residues each side
# In short: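 Primer extension turned Universal Agilent oligonucleotide arrays double-stranded. They were incubated with 200 nM protein in PBS (pH 7.5); the protein was a GST-fused Tbr T-box DNA-binding domain expressed in BL21 E. coli at 20 °C and purified on glutathione. Every ungapped 8-mer was scored from the scanned, quantified probe intensities, and the Universal PBM Analysis Suite gave each an enrichment E-score averaged over duplicate arrays.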
row,Sequence,PBM E-score of 8-mer
1,CACGGCCG,0.13 ± 0.0079
2,GATTTTGA,-0.0701 ± 0.045
3,CATACGCA,0.0622 ± 0.012
4,AGGACGAC,-0.255 ± 0.091
5,GTTGATGA,-0.084 ± 0.033
6,ACTCATGA,-0.00258 ± 0.012
7,TATATAAA,-0.0861 ± 0.033
8,ACCTCACC,0.261 ± 0.028
9,CATTCTCA,0.142 ± 0.014
10,CCAATGGG,-0.235 ± 0.029
11,TATAATAA,-0.161 ± 0.11
12,AGACCTTA,-0.154 ± 0.0075
13,TTTCCAAA,-0.253 ± 0.022
14,AGATTACG,-0.0578 ± 0.022
15,ATCTATCG,-0.0094 ± 0.013
16,ATTTTCTG,-0.125 ± 0.02
17,AAGCCCCA,-0.164 ± 0.057
18,ACGGAGCT,0.0338 ± 0.019
19,AGCAAGTC,-0.00782 ± 0.031
20,ATAACTGC,-0.0529 ± 0.073
21,AACAGTAG,-0.0322 ± 0.0034
22,CGCCCCTA,-0.067 ± 0.015

row,Sequence,PBM E-score of 8-mer
1,CGGACTGA,-0.285 ± 0.0044
2,GTAACACA,0.3374 ± 0.0018
3,CGTACTGA,-0.105 ± 0.017
4,CAAGAGAA,-0.0649 ± 0.039
5,ACGACGTC,0.00952 ± 0.05
6,GGACTAAA,-0.0761 ± 0.065
7,CGATCGGC,-0.00361 ± 0.054
8,AAAGTCGC,0.157 ± 0.034
9,AATCAGAG,-0.286 ± 0.021
10,ATGGGCAG,-0.0292 ± 0.0055
11,CCCGAAGA,-0.207 ± 0.039
12,CCAAACGA,0.0753 ± 0.089
13,GCGAGAAC,0.375 ± 0.01
14,TACGGCCA,-0.108 ± 0.0061
15,AGTCGACC,-0.125 ± 0.038
16,GCATCCGA,-0.115 ± 0.02
17,GCCCCGCA,0.004 ± 0.014
18,CGGCTTTA,-0.00848 ± 0.029
19,ACAGCACA,0.0896 ± 0.0015
20,AACTAACG,0.178 ± 0.017
21,ACCTGTCT,0.112 ± 0.039
22,ACTTAGCT,-0.0647 ± 0.055

row,Sequence,PBM E-score of 8-mer
1,ATCTGTAA,-0.0802 ± 0.019
2,CAATTGAG,-0.258 ± 0.02
3,CTGCTTGC,-0.132 ± 0.025
4,GCCTAGGA,-0.156 ± 0.035
5,ACACCCCG,0.397 ± 0.029
6,GCTAAGTA,-0.107 ± 0.0026
7,CCTTTGCA,0.0305 ± 0.03
8,AGCGGCCT,0.0841 ± 0.041
9,AGCTGACA,0.27 ± 0.0082
10,CCGTATTC,0.0483 ± 0.06
11,ACGCTCGA,-0.154 ± 0.03
12,GCTGCGCA,-0.00302 ± 0.042
13,AGTTGTAG,-0.105 ± 0.031
14,ACAAGGGA,-0.117 ± 0.072
15,AGTAAGAG,-0.135 ± 0.055
16,TAAACTGA,-0.0928 ± 0.015
17,CACACCGC,0.334 ± 0.027
18,AACATAGG,-0.0922 ± 0.013
19,GCGTCACA,0.307 ± 0.014
20,ACGTCGGC,0.00644 ± 0.054
21,CCTCCAAA,-0.206 ± 0.018
22,ACCGCACA,0.0956 ± 0.021

row,Sequence,PBM E-score of 8-mer
1,AAAGGCTA,-0.25 ± 0.021
2,ACCTATTC,0.0263 ± 0.025
3,GTCATTGA,-0.165 ± 0.021
4,AAATCGGA,-0.106 ± 0.047
5,GATTCTAA,-0.138 ± 0.0011
6,AAGTCCGG,-0.166 ± 0.026
7,GTGGTGAA,0.153 ± 0.0049
8,TGCAACCA,-0.121 ± 0.053
9,CCTGGACA,-0.0304 ± 0.0074
10,CTGCACCA,-0.0587 ± 0.033
11,CCAGGCAA,-0.165 ± 0.011
12,CCTAGTAC,-0.14 ± 0.071
13,AGCGAGAC,0.0463 ± 0.032
14,CTTTTGTA,-0.189 ± 0.047
15,ACGACGGG,-0.0262 ± 0.074
16,CTCATGCC,-0.0878 ± 0.1
17,CAGTAACC,0.107 ± 0.0031
18,ATTCCCCA,0.0529 ± 0.071
19,GGTTATCA,0.0372 ± 0.034
20,CTTCTGGC,-0.0431 ± 0.0062
